{"source": "PubChem BioAssay AID1671194", "about": "(National Center for Advancing Translational Sciences (NCATS), 2021)", "note": "The campaign covered roughly 140,000 compounds. About 240 (0.17%) were called active. This list was built around the results that the source calls inconclusive (neither active nor inactive); the mix of calls is not that of the screen. Calls follow the shape of the dose curve; as a rule, active = well fitted inhibition curve with a large enough effect; inconclusive = small, poorly fitted or top-dose-only effect; inactive = no such curve, though single readings can be large or run the other way. A potency beside an inconclusive call is a rough fit, not a confirmed value. Potency is read from the fitted curve at half-maximal effect; tags tell the direction and shape of the fitted curve."}
{"test": "Primary qHTS assay for inhibitors of alpha-synuclein gene (SNCA) expression; also: nearly all actives have a fitted effect of over 45% in size", "settings": "HEK-293 SNCA-luciferase knock-in, luminescence, 24 h; series mostly up to 57.2 µM"}
{"smiles": "O=C(Nc1ccccc1)N1CCC(C(=O)N2CCC(c3ccccc3)CC2)CC1", "Potency": "inconclusive: 2.24 µM [inhibitor, full curve, poor fit]"}
{"smiles": "Cn1c(C(=O)N2CCN(c3ccccn3)CC2)nc2nc(-c3ccccc3)c(Cl)cc21", "Potency": "inconclusive: 28.2 µM [inhibitor, partial curve, poor fit]"}
{"smiles": "O=C(Cc1ccc(N(Cc2ccccc2)C(=O)c2ccco2)cc1)NCC1CCCO1", "note": "(stereo unspecified)", "Potency": "inconclusive: 8.91 µM [inhibitor, single point]"}
{"smiles": "c1ccc([C@@H]2C[C@H]2c2nc(C3CCOCC3)nn2-c2cccnc2)cc1", "Potency": "inconclusive: 15.8 µM [inhibitor, single point]"}
{"smiles": "CN(Cc1cccn1C)C1CCCc2ccccc21", "note": "(stereo unspecified)", "Potency": "inactive"}
{"smiles": "CCCNc1cc(N2CCC(CCC(=O)NCc3ccc(Cl)cc3)CC2)ncn1", "Potency": "inconclusive: 1.12 µM [inhibitor, full curve, poor fit]"}
{"smiles": "COc1cc(Nc2ncncc2-c2nc(-c3ccccc3)no2)c(OC)cc1Cl", "Potency": "inactive"}
{"smiles": "O=C(C[C@@H]1C[C@H]2O[C@H](CNC3CCC3)[C@@H](O)[C@H]2O1)N1CCOCC1", "Potency": "inconclusive: 6.31 µM [inhibitor, single point]"}
{"smiles": "CCOc1ccc(-c2nc(CSCC(=O)NCc3ccc(Cl)cc3)c(C)o2)cc1", "Potency": "inconclusive: 22.4 µM [inhibitor, partial curve, poor fit]"}
{"smiles": "COc1ccccc1-c1nc(COC(=O)C2=CN(Cc3ccccc3)S(=O)(=O)N=C2C)no1", "Potency": "inconclusive: 22.4 µM [inhibitor, partial curve, poor fit]"}
{"smiles": "O=C(NCCc1noc(-c2ccccc2)n1)c1ccoc1", "Potency": "inconclusive: 1.78 µM [inhibitor, full curve, poor fit]"}
{"smiles": "O=C(C1CC1)N1CC(Oc2ccc(-c3noc(C4CCOCC4)n3)cc2)C1", "Potency": "inactive"}
{"smiles": "O=C(Nc1ccncc1)C1=NO[C@@H]2CN(c3ccccc3)C[C@H]12", "Potency": "inconclusive: 8.91 µM [inhibitor, single point]"}
{"smiles": "CCN1C(C(=O)c2ccccc2)=C(OC(=O)c2ccccc2OC)c2ccccc2S1(=O)=O", "Potency": "inconclusive: 28.2 µM [inhibitor, partial curve, poor fit]"}
{"smiles": "Cc1ccc(NC(=O)N2CCC(CCNC(=O)C3CC3)CC2)cc1F", "Potency": "inactive"}
{"smiles": "O=C(O)C1CC2(CCN(C(=O)c3ccc4c(c3)OCCO4)CC2)CN1", "note": "(stereo unspecified)", "Potency": "inconclusive: 39.8 µM [inhibitor, single point]"}
{"smiles": "CC1=NOC2(CCN(C(=O)c3ccc(C)cc3)C2)C1", "note": "(stereo unspecified)", "Potency": "inconclusive: 8.91 µM [inhibitor, single point]"}
{"smiles": "CCc1noc(CC2CCOC3(CCN(S(=O)(=O)c4cccc(OC)c4)CC3)C2)n1", "note": "(stereo unspecified)", "Potency": "inactive"}
{"smiles": "O=C(Cc1cccc(Cl)c1)NC1CCN(c2cc(-c3ccccc3)[nH]n2)CC1", "Potency": "inconclusive: 39.8 µM [inhibitor, single point]"}
{"smiles": "Cc1cc(C(=O)NCc2ccc(F)cc2)c2c(C3CCNCC3)noc2n1", "Potency": "inconclusive: 1.58 µM [inhibitor, full curve]"}
{"smiles": "COc1ccc(C2CC(=O)N(Cc3cccc(F)c3)c3ccccc3S2)cc1", "note": "(stereo unspecified)", "Potency": "inconclusive: 20 µM [inhibitor, single point]"}
{"smiles": "Brc1c(NC2=NCCN2)ccc2nccnc12", "Potency": "inconclusive: 39.8 µM [inhibitor, partial curve, poor fit]"}
{"smiles": "O=C(c1ccc2nnc(-c3ccc(Cl)cc3)n2c1)N1CCCC1", "Potency": "inconclusive: 5.62 µM [inhibitor, partial curve, poor fit]"}
{"smiles": "Cc1ccc(-c2cc(C(=O)N3CCC(Cc4nncn4C(C)C)CC3)c3ccccc3n2)cc1C", "Potency": "inconclusive: 11.2 µM [inhibitor, single point]"}
{"smiles": "Cc1ccc(Cl)cc1N1CCN(S(=O)(=O)c2ccc3c(c2)CC(C)N3C(=O)C2CCC2)CC1", "note": "(stereo unspecified)", "Potency": "inconclusive: 22.4 µM [inhibitor, partial curve, poor fit]"}
{"smiles": "Cc1c(-c2ccccc2)[nH]c2c(CNC(=O)c3ccc(=O)n(C)n3)cc(Cl)cc12", "Potency": "inactive"}
{"smiles": "CN(C(=O)Cn1cc(S(=O)(=O)Cc2ccccc2Cl)c2ccccc21)c1ccccc1", "Potency": "inconclusive: 39.8 µM [inhibitor, single point]"}
{"smiles": "CNC(=O)[C@@H]1CN(C(=O)CCc2cc(OC)no2)C[C@H]1c1nc(C)no1", "Potency": "inconclusive: 17.8 µM [inhibitor, partial curve, poor fit]"}
{"smiles": "NC(=O)C1CCN(CC2(O)CCCN(CCCc3ccccc3)C2=O)CC1", "note": "(stereo unspecified)", "Potency": "inconclusive: 39.8 µM [inhibitor, single point]"}
{"smiles": "O=C(NCc1ccccc1)c1cc2n(n1)CC(c1ccc(Cl)cc1)OC2", "note": "(stereo unspecified)", "Potency": "inconclusive: 35.5 µM [inhibitor, single point]"}
{"smiles": "Cc1ccccc1CS(=O)(=O)Cc1ccc(C(=O)NCCc2ccc(Cl)cc2)o1", "Potency": "inconclusive: 39.8 µM [inhibitor, single point]"}
{"smiles": "Cc1cc(F)ccc1-c1[nH]nc2ncc(-c3cn[nH]c3)nc12", "Potency": "inconclusive: 3.16 µM [inhibitor, full curve, poor fit]"}
{"smiles": "CCc1nnc2ccc(N3CCCCC3)nn12", "Potency": "inactive"}
{"smiles": "O=C(CN1C(=O)NC2(CCOCC2)C1=O)Nc1cccc(F)c1", "Potency": "inactive"}
{"smiles": "Cc1ncccc1C(=O)N1CCC(N2C(=O)C3(CCCC3)C2c2ccccc2)CC1", "note": "(stereo unspecified)", "Potency": "inconclusive: 39.8 µM [inhibitor, single point]"}
{"smiles": "O=C(NCc1ccco1)N1CC(c2noc(C3CCCN3CC3CC3)n2)C1", "note": "(stereo unspecified)", "Potency": "inconclusive: 39.8 µM [inhibitor, single point]"}
{"smiles": "CCN(CC)C(=O)c1coc(COc2ccc3c(c2)C(c2ccc(C)cc2)N(C(=O)C2CC2)CC3)n1", "note": "(stereo unspecified)", "Potency": "inactive"}
{"smiles": "CCn1ncc(N2CCCC(CC(=O)N3CCN(c4ccccn4)CC3)C2)cc1=O", "note": "(stereo unspecified)", "Potency": "inactive"}
{"smiles": "CCOC(=O)C1CCN(C(=O)c2cn3cc(-c4ccccc4)sc3n2)CC1", "Potency": "inactive"}
{"smiles": "C=CCNC(=O)C(NC(=O)c1ccc(OC)cc1)C1CCN(C(=O)C2CC2)CC1", "note": "(stereo unspecified)", "Potency": "inactive"}
{"smiles": "CCOC(=O)N1CCC(NC(=O)c2cnn(-c3ccc(OC)cc3)c2C2CCN(C(=O)OC(C)(C)C)CC2)CC1", "Potency": "inconclusive: 0.251 µM [inhibitor, single point]"}
